From the supplement of paper PMC11417369
± gives the standard deviation of the averaged measurements. The list shows a part of the results.

System: PfAP2-EXP AP2 domain (GST-tagged)
Test: gcPBM binding intensity (ln(normalized median fluorescence intensity)); higher = stronger DNA binding
Procedure, shortened: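 GST-tagged P. falciparum DNA-binding domains produced in E. coli were incubated for 1 h on an Agilent 4 × 180k array of primer-extended double-stranded 36-bp intergenic genomic probes with negative controls. Binding intensity is the highest Masliner-normalised natural-log median intensity across replicate spots of either probe orientation, with bound protein detected by Alexa488 anti-GST antibody at 488 nm.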

Sequence	gcPBM binding intensity (ln)
TATAAAAAAAAAAAAAGTACTAACTTAAAACAATTT [XGTACX_site7969]	8.35 ± 0.35
TTGATAATTATATAATGTACTCATTATAATATGATG [XGTACX_site7813]	8.32 ± 0.16
AGTTTGTCAATCAACACACACCTATTTATTATAGAT [CACACA_site7777]	8.37 ± 0.42
TATTTATTCTCCAACACACACACATATATTTATATA [CACACA_site7376]	8.69 ± 0.53
AAAAATGAGTGACACACACACATATAAATATAAATA [CACACA_site7115]	8.39 ± 0.49
AAATCAAACTTTGGTGTGCACAAATATATACATATA [GTGCAC_site9986]	9.1 ± 0.29
TTTTTTTTACATTCTGCACACAATTTATTTTTTTTT [CACACA_site36]	8.88 ± 0.38
ACATATAAATATTGTGTGCACACACATAATATATAT	8.68 ± 0.16
GTAATTTTAAAGAAAAGTACACATTTATTAATTATT [XGTACX_site4468]	8.21 ± 0.3
TTGCATTTATTATACACACACAAAAAAATATATATA [CACACA_site238]	8.72 ± 0.3
AAAAATTATAACTAAAAAAATCACACAAAATATTTT [TGCATGCA_negctrl_site28]	8.38 ± 0.37
GTGTTAAATGTTTACACACAAACTTGCAATAATTAT [CACACA_site3825]	8.62 ± 0.44
TATGTATTTAAGTTACCTGAACGTTCAGGTAAAATT [CACACA_negctrl_site1393]	8.55 ± 0.49
ATAAATATTTACAAAAGTACACATAACTTTAGATAT [XGTACX_site1685]	8.45 ± 0.54
TAAACATAATATTTAACACACATGAAGATGTATATT [CACACA_site1036]	8.21 ± 0.4
ACAATCCACAGGGGCGCACACATATAAGCAGTATAT [CACACA_site3817]	8.83 ± 0.67
GTTTTGGCTAACTATTCACACATTAAAATATTACCA [CACACA_site5016]	8.6 ± 0.28
CACCATGATACATACACACAGACATATACGCATTCA [CACACA_site1008]	8.61 ± 0.39
TTTGTTGTTTGGAGATGTACATATTTTACACTTTTT [XGTACX_site5965]	8.77 ± 0.33
AAAAAATTAATAAAAACACACAAAAAAAATAAACAA [CACACA_site1907]	8.62 ± 0.48
ATTTCACAGAGACACACACACAATATATTTCCTTTT [CACACA_site7773]	8.82 ± 0.5
ATAAAATATATGAAGACACACATAACATCATATTTT [CACACA_site3144]	8.38 ± 0.67
TTTATATTAAAATATTGTACGGACATTATTTTGTAA [XGTACX_site8128]	8.22 ± 0.35

Sequence	gcPBM binding intensity (ln)
AACCGGGCCTAAGATGTAATGCCTTAGCCTATAAAA [CACACA_negctrl_site479]	8.19 ± 0.49
CATAATATGACATACACACACAAAAAAAAAAAAATA [CACACA_site1285]	8.46 ± 0.62
ACTTTAACCTGAACGGTGCATAAAATTTTGGCATTA	8.94 ± 0.2
CACGAACACAAACACAAACACACATCATATATATAT [CACACA_site1322]	9.72 ± 0.13
AAAGATAAAAAAAGTACACACACACCGATATATATA [CACACA_site9006]	9 ± 0.44
AATATATATAAAAAGGGAAAAATATATAAATAGATA [XGTACX_negctrl_site52]	8.57 ± 0.51
AAAAAATTGACTAATGCACACAATTACAGATATATA [CACACA_site5010]	8.57 ± 0.29
TCGTGCATAAATCATACACACACACCGATATATATA [CACACA_site8767]	8.955 ± 0.064
AAAAAAAAAAAAAACGCACACATTTTTACAATTCTA [CACACA_site3271]	8.58 ± 0.099
TTTGTATCCTTTTTGACATGCAACCATTCGGGTACA [TGCATGCA_site506]	8.76 ± 0.37
TCACAATTTTTTAGTACACACATATAAATATATAAA [CACACA_site1537]	8.52 ± 0.17
TCTATTAATTAATATACACACATTATGTATATATAT [CACACA_site2541]	8.62 ± 0.3
TTTCATTAATCTAATAGTACAGAAAATTGAGAAAAA [XGTACX_site8395]	8.72 ± 0.34
GTATACAAACATATAAATATAAATGTATTATTTGTT [CACACA_negctrl_site756]	8.1 ± 0.45
AAGAGAAAAAGAATGAAAGAAAAAAAAAAAAAATAT [CACACA_negctrl_site1527]	8.29 ± 0.17
CCCACAGACAAAAACACACACAAAGGTGTTCTTATA [CACACA_site4840]	8.8 ± 0.74
TTTTTAAAGGTGATAAAACACACGATTTAGAAATGT [CACACA_site3160]	8.55 ± 0.41
CTACATAAAAAAATATGTACATATATATATATATAT [XGTACX_site667]	10 ± 0.46
TTATCGACCAATAAAGCATGCAAAAAAAAAAAAAAA [TGCATGCA_site788]	8.56 ± 0.35
TAAATTTTTATTTGTAGTACTATATATATATATATA [XGTACX_site1026]	10.1 ± 0.23
TTTTTTTGCCATATTACACACACACGGGTAAACCCC [CACACA_site6874]	8.72 ± 0.5
TTTAATATAACTATTTGTACATAAAGAATATAAATA [XGTACX_site4594]	8.39 ± 0.28
TAATGAAAATATATAACACACAAAAGTTATAAATAT [CACACA_site1189]	8.62 ± 0.28

Sequence	gcPBM binding intensity (ln)
GTGTTGAATTATGTGCTTTTTTCTTTCTACTCAGTA [XGTACX_negctrl_site464]	9.05 ± 0.45
TATATATGTATCAAGTGTACAGTTTTAAAAAAAAAA [XGTACX_site6011]	8.64 ± 0.52
GAACATTTGAAATATGCACACATGTATAAACATACA [CACACA_site5463]	8.56 ± 0.25
ATACATCGTATATAAGTGCATATTAAGGTCTTAAGA [GTGCAC_site9560]	8.64 ± 0.38
ACACACAATACAAAAGTGCATATAATAATTAATCAT	8.73 ± 0.18
TGTTTTTAAAAAAAAAAAAAATCACACCGGCAGGTA [CACACA_negctrl_site1437]	8.43 ± 0.58
TGCGTATATATATACACACACATATATATATTTTAA [CACACA_site1952]	8.5 ± 0.3
AAAAAAAAAAGACACACACACAAAATAAACAAACAA [CACACA_site7308]	8.76 ± 0.63
TATTTCATTAATGTCACTTTGAAAGAAATGAAAAAA [CACACA_negctrl_site1803]	8.31 ± 0.52
CATATTATTCTTTTCACACACGCGTTAATAATAATC [CACACA_site3931]	9.04 ± 0.5
TATTGACATATATTAGTGCAATAATGAAATCAAGTA	8.82 ± 0.11
AAAAAAAAAAAAAACACACACATACAGACAAAAATG [CACACA_site83]	8.76 ± 0.59
CTAAATTATAGATCAGTGCAATTTAATATGAGTCCA	8.48 ± 0.28
TTGTAATTATTAAACACACACAAAATATATATAATA [CACACA_site2523]	8.71 ± 0.53
AGGTGAGCTCAGACTACACACACAAAGAAAAAAATA [CACACA_site8439]	8.79 ± 0.73
CCATAAAAATATAATACACACATATATATTAACATA [CACACA_site4102]	8.57 ± 0.44
ATGTATATGATTAAATGTACGTAAACAAATTTGTAA [XGTACX_site8174]	8.98 ± 0.49
ACCACATAAAACAAATGTACTTGAAATATATGCGTA [XGTACX_site5155]	8.43 ± 0.4
CAAAGGGAAATTAACACACACATATTTATATTTATA [CACACA_site7202]	8.47 ± 0.47
TATTAATAAATTTATAAAACAGGTATATATATATAT [CACACA_negctrl_site615]	10.1 ± 0.18
AGAGTACAAGTAAATACACACATATAGATGAAAATA [CACACA_site6635]	8.68 ± 0.28
ATATATATATATATATGTACACACATCAATCATATT [XGTACX_site4005]	10.2 ± 0.54
TGCAGTCTGGAGAAGAGTACATAGTATCTGGTAGCT [XGTACX_site2021]	8.66 ± 0.37

Sequence	gcPBM binding intensity (ln)
AAGAAAACTTAAAATAAAAGCATATTTTATCTTACA [TGCATGCA_negctrl_site366]	8.05 ± 0.24
TTTCTTACAACAACAACAAAAAAAAATAAATAAAAT [GTGCAC_negctrl_site711]	8.64 ± 0.53
ATATTTTATATTTCTTGTACATATATTTGTAGATAT [XGTACX_site1140]	8.55 ± 0.33
AATTTATTTTTAAAAAGTACATACTTAAGAAAACGA [XGTACX_site3660]	8.45 ± 0.81
TATTATTTTTTTATTCTATTAAAAAGAAAAAAATGA [CACACA_negctrl_site407]	7.95 ± 0.47
GATTCATTTCATAATACACACAACAAATATTTCAAA [CACACA_site120]	8.63 ± 0.4
CCATTTAAAACATTTTGTACTTATTTTACATTTCTG [XGTACX_site4270]	8.7 ± 0.22
TCGACAATTTTATAAAGTACTTATTAGAAATATGAA [XGTACX_site7133]	8.3 ± 0.34
AGAAAAAAAAATTATACATGCATATACGTTTATTTT [TGCATGCA_site529]	8.56 ± 0.33
AAACAAATAAAATTTATTAAAAAGGTCATATTATTA [CACACA_negctrl_site85]	8.19 ± 0.32
TAAATATATTTCATGACATGCAACTTGTTTTTTTGT [TGCATGCA_site456]	8.79 ± 0.42
TCAACACACGTGGAATGTACTTTAGTATAAGAATTC [XGTACX_site7842]	8.52 ± 0.49
ATAAAAAAAAGACACACACACATATATATATATATA [CACACA_site3073]	10 ± 0.33
TCTTTTACAAAAGCTATAACATTCACCACATTATAA [GTGCAC_negctrl_site133]	8.36 ± 0.38
TATATATATATATAAACACACATAAATATAAATATA [CACACA_site1121]	10 ± 0.37
AAAAAAAAAATATACACACACATATATATATATATA [CACACA_site3404]	10.1 ± 0.51
ATAATATATACGTGTGTGCACATGACAAAAGCATAT	9.23 ± 0.27
GTTAATGTGGTTACTTGTACATATTAACGTCTTTTT [XGTACX_site2617]	8.65 ± 0.4
ATATATATATTTTATGCATGTTCATTTTCTATATTT [TGCATGCA_site442]	9.56 ± 0.16
AATAGAACTATTACACGTACAGAACATGAATTAGTT [XGTACX_site7518]	8.48 ± 0.31
